Measured values: PubChem BioAssay AID651820 (National Center for Advancing Translational Sciences (NCATS), 2012)
The whole screen tested about 340,000 compounds, of which about 12,000 (3.5%) were called active. The shares of active, inactive and inconclusive entries below differ from those in the screen. The call rests on the fitted dose curve; in most records, active means well fitted inhibition curve with a large enough effect; inconclusive means small, poorly fitted or top-dose-only effect, or another doubt; inactive means no such curve, though single readings can be large or run the other way. Potencies of inconclusive entries are left out as doubtful fits.

experiment: qHTS Assay for Inhibitors of Hepatitis C Virus (HCV); conditions: Huh7.5.1 HCVcc-Cre (HCVcc is cell-culture hepatitis C virus) infection, luciferase reporter, 44 h; activity change, negative = inhibition: at 41.8 µM (top of the series) unless noted
Summary of the method: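 Luciferase read-out (15 sec integration) after a 15 min room-temperature substrate step quantifies HCVcc-Cre infection. Cells, 1,000 per well, had compound added 4 h post-plating, then virus at ~0.5 moi, and were cultured 44 h.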
On the % scale 0 is the no-effect control and ±100 the full control effect; potency means the concentration at half of the fitted maximal effect; tags describe the fitted curve by direction and shape.

Compound | Potency | activity change, negative = inhibition
O=C(Cc1ccccc1)NC(c1ccco1)c1c(O)ccc2ccccc12 (configuration not stated) | inconclusive [inhibitor, full curve, poor fit] | –
CS(=O)(=O)N1CCc2cc(-c3csc(NC(=O)Cc4ccccc4)n3)ccc21 | inconclusive [inhibitor, single point] | –
CC(C(=O)N1CCc2ccccc21)N1CCN(S(=O)(=O)c2ccc(C(F)(F)F)cc2)CC1 (configuration not stated) | inconclusive [inhibitor, single point] | –
CC1CCCN(c2nc3c(c(=O)n(C)c(=O)n3C)n2CCSc2nc3ccccc3o2)C1 (configuration not stated) | inconclusive [inhibitor, partial curve] | –
Cc1cccc(Cn2nc(C(C)(C)C)cc2C(=O)Nc2ccc(F)cc2)c1 | inconclusive [inhibitor, single point] | –
COc1ccc(S(=O)(=O)Nc2c(C)cc(C)cc2C)c2cccnc12 | – | inactive: 14.3%
Cc1cc2nc(-c3cc(N4CCOCC4)ccc3[N+](=O)[O-])ccn2n1 | inconclusive [inhibitor, single point] | –
CCCOC(=O)c1ccc(-c2c(C)noc2-c2ccc(OC)cc2O)o1 | inconclusive [inhibitor, partial curve, poor fit] | –
O=C(CCC(=O)Nc1ccc(Br)cc1)N/N=C/c1ccccc1O | inconclusive [inhibitor, single point] | –
CC(=O)O[C@]1(C(C)=O)CC[C@H]2[C@@H]3C[C@H](C)C4=CC(=O)CC[C@]4(C)[C@H]3CC[C@@]21C | inconclusive [inhibitor, single point] | –
C=CCN1C(=O)NC(c2ccccc2)(C(F)(F)F)S/C1=C(\C#N)c1nnc(N2CCOCC2)n1-c1ccccc1 (configuration not stated) | inconclusive [inhibitor, single point] | –
CCOc1ccc(NC(=O)C2CCCN(C(=O)NCc3ccccc3)C2)cc1 (configuration not stated) | inconclusive [inhibitor, single point] | –
CC(=O)Nc1ccccc1C(=O)OCc1cccc(F)c1 | inconclusive [inhibitor, single point] | –
O=C1OCc2cc(NC(=O)C3CCCCC3)ccc21 | inconclusive [inhibitor, partial curve] | –
O=C(O)c1cc(-c2ccccc2)nc2ccccc12 | inactive | –
O=C(Nc1ccn(CCCNCc2ccccc2)c(=O)n1)OCc1ccccc1 | active: 0.562 µM | –
COc1cc(NC(=O)c2ccc([N+](=O)[O-])cc2)ccc1NC(=O)C(C)C | inconclusive [inhibitor, partial curve, poor fit] | –
CC1CCN(c2ccc(NC(=O)c3cccnc3)cc2)CC1 | inconclusive [inhibitor, single point] | –
COc1nnc(-c2ccc(C)cc2)c2ccccc12 | – | inactive: -6.51%
CCOCc1c(C(=O)Nc2ccccc2N2CCN(C)CC2)oc2ccccc12 | active: 11.2 µM | –
CS(=O)CSc1nc2c(cc1C#N)CCCC2 (configuration not stated) | inconclusive [inhibitor, single point] | –
CCCCN(C(=O)c1ccc(C)c(S(=O)(=O)N2CCOCC2)c1)c1c(N)n(CC(C)C)c(=O)[nH]c1=O | – | inactive: -5.97%
CCOc1cc(C(=O)NCc2ccncc2)cc(OCC)c1OCC | – | inactive: -20%

Compound | Potency | activity change, negative = inhibition
Cc1nc(NCc2ccc3c(c2)OCO3)c2oc3ccccc3c2n1 | inconclusive [inhibitor, single point] | –
Nc1c(C(=O)NCC2CCCO2)c2nc3ccccc3nc2n1-c1ccccc1 (configuration not stated) | inconclusive [inhibitor, single point] | –
COc1ccc(NC(=O)c2cc3sccc3n2Cc2ccc(F)cc2)cc1OC | inconclusive [inhibitor, partial curve, poor fit] | –
C/C(=N/Nc1ccnc2cc(Cl)ccc12)c1ccc(N)cc1 | inconclusive [inhibitor, single point] | –
O=C(c1cccc(C(F)(F)F)c1)C1CCCN(Cc2cccn2-c2ccccn2)C1 (configuration not stated) | inconclusive [inhibitor, single point] | –
COC(=O)c1ccc(OS(=O)(=O)c2ccc(NC(C)=O)cc2)cc1 | inconclusive [inhibitor, full curve] | –
COc1ccc(N2CCN(C(=O)c3cc(N4C(=O)C5C6CCC(C6)C5C4=O)ccc3Cl)CC2)cc1 (configuration not stated) | – | inactive: 5.83%
COc1ccc(CN2C(=NC(=O)c3ccccc3)SC3CS(=O)(=O)CC32)cc1OC (configuration not stated) | inconclusive [inhibitor, single point] | –
CN(C)CCCN(C(=O)CCc1ccccc1)c1nc2ccc(Cl)cc2s1 | inconclusive [inhibitor, partial curve, poor fit] | –
O=C(Nc1cccc(-c2cn3ccccc3n2)c1)c1cccc(Cl)c1 | active: 11.2 µM | –
CCOC(=O)N1CCN(c2ccc(S(=O)(=O)N(Cc3ccccc3)Cc3ccccc3)cn2)CC1 | inconclusive [inhibitor, partial curve, poor fit] | –
Cc1ccc2nc(-c3cccc(NS(C)(=O)=O)c3)cc(-c3ccccc3)c2c1 | inconclusive [inhibitor, partial curve] | –
COc1ccc(C2CC(c3ccccc3)=NN2S(=O)(=O)c2ccccc2)cc1 (configuration not stated) | active: 12.6 µM | –
CCOc1ccc(OCC)c(NC(=O)c2ccc(CNc3c(N4CCCC4)c(=O)c3=O)cc2)c1 | – | inactive: 12.8%
CC(C)c1ccc(C2NCc3ccccc3-n3cccc32)cc1 (configuration not stated) | inconclusive [inhibitor, single point] | –
CCc1nc2ccccc2c(C(=O)OCC(=O)NCc2ccco2)c1C | inconclusive [inhibitor, partial curve] | –
CCN1C(=O)[C@H]2[C@H]3CN=C(SCC4CC4)N3[C@@](CC)(C(=O)OC)[C@H]2C1=O | inconclusive [inhibitor, single point] | –
N#Cc1ccc(C(=O)Nc2cc(-c3ccccc3)nn2-c2ccccc2)cc1 | active: 10 µM | –
Cc1ccc(Cn2nnc3c(=O)[nH]c(C4CCN(S(=O)(=O)c5ccccc5F)CC4)nc32)cc1 | inconclusive [inhibitor, single point] | –
CC(C)NCC(O)c1ccc2ccccc2c1 (configuration not stated) | – | inactive: -20.3%
O=C(Nc1ccc(-c2csc(Nc3ccc(Cl)cc3)n2)cc1)c1cc([N+](=O)[O-])cc(C(F)(F)F)c1 | inconclusive [inhibitor, partial curve] | –
CCN1C(=O)N(C)[C@@H](c2ccccc2)C(C(=O)OC)=C1C | – | inactive: -8.8%
O=C(O)c1cccc(N2C(=O)/C(=C/c3ccc([N+](=O)[O-])cc3)C=C2c2ccccc2)c1 | – | inactive: 5.41%

Compound | Potency | activity change, negative = inhibition
CC1(C)OC(=O)C(=NNc2ccc(O)cc2)C(=O)O1 | inconclusive [inhibitor, partial curve] | –
COc1cccc(NC(=O)CN2CCN(S(=O)(=O)c3ccc(C(C)C)cc3)CC2)c1 | – | inactive: -2.94%
CN1C(=O)CSc2ccc(NC(=O)NCc3cccnc3)cc21 | inconclusive [inhibitor, partial curve] | –
CC(C)C(OC(=O)c1cc2occc2n1C)C(=O)NCc1ccc2c(c1)OCO2 (configuration not stated) | inconclusive [inhibitor, single point] | –
Cc1cc(NC(=O)c2ccc3nc(-c4ccccc4)c(-c4ccccc4)nc3c2)no1 | – | inactive: -0.918%
CCc1ccc(NC(=O)C(C)OC(=O)c2ccc(N3CCCC3)c([N+](=O)[O-])c2)cc1 (configuration not stated) | inconclusive [inhibitor, partial curve, poor fit] | –
CC(C)C(=O)Nc1cc(C(F)(F)F)ccc1N1CCOCC1 | inconclusive [inhibitor, full curve, poor fit] | –
C=CCNC(=S)Nc1sc2c(c1C(N)=O)CCCC2 | inconclusive [inhibitor, single point] | –
Cc1ccc(-c2nnc(Nc3ccc4c(c3)OCO4)c3ccccc23)cc1S(N)(=O)=O | inconclusive [inhibitor, single point] | –
CC(NCc1ccc(F)cc1)C(=O)Nc1cc(S(=O)(=O)N2CCCCC2)ccc1Cl (configuration not stated) | inconclusive [inhibitor, single point] | –
Cc1ccc(-c2cnc3ccccc3n2)cc1C | – | inactive: 0.41%
O=C(CSc1ncccn1)NCc1cccc(Cl)c1 | – | inactive: 7.21%
CCOc1ccc(-n2c(=O)c3ccccc3c3ccccc3c2=O)cc1 | – | inactive: 1.64%
COc1ccc(O[C@H]2C=C[C@@H](c3ccccc3)O[C@@H]2COC(=O)CC/C(C)=N/O[C@@H](C)c2cn([C@H](CO)Cc3ccccc3)nn2)cc1 | – | inactive: 4.46% [at 8.37 µM]
O=c1cccc2c1c1cc[nH]c3ccc(=O)n2c31 | inconclusive [inhibitor, single point] | –
O=C(CC(c1ccccc1)c1cc(Cl)ccc1O)N1CCCC1 (configuration not stated) | – | inactive: -19.7%
CN1CCN(c2cc(N3CCCCCC3)c(F)cc2[N+](=O)[O-])CC1 | inconclusive [inhibitor, full curve] | –
Cc1ccnc(NC(=O)Cc2ccc(-c3ccccc3)cc2)c1 | active: 3.98 µM | –
CC(C)Cc1nc2oc3c(N4CCN(CCO)CC4)ncnc3c2c2c1CCCC2 | inconclusive [inhibitor, full curve] | –
CCOC(=O)COc1ccc2ccccc2c1/C=C/[N+](=O)[O-] | inconclusive [inhibitor, single point] | –
CN(C)CCCNc1nc(-c2ccccc2)c2c(c1C#N)CC(C)(C)OC2 | inconclusive [inhibitor, partial curve] | –
